Data taken from the supplement of paper PMC10126150.
Values marked as one replicate rest on one cluster of the flow cell; about a third of the high ones do not repeat.

Tested on: ATP
Test: switch fluorescence ratio, 500 uM ATP over buffer (Cy3 cluster intensity, sum of 5 cycles each) (fold (ratio)); higher = stronger signal-on switching upon ATP binding; sequences stand for … in TCGTCGGCAGCGTCAGATGTGTATAAGAGACAGTTTTTTTTTTTTTTTTTTTTTTTTT…TC
Conditions: aptamer strand: ATP DNA aptamer (quencher-CACCTGGGGGAGTATTGCGGAGGAAGG + anchor), 100 nM annealed; ATP concentration: 500 uM; one replicate
In short: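 After annealing to 100 nM quencher-labelled ATP aptamer, Cy3-labelled switching-strand clusters on a modified Illumina MiSeq flow-cell were imaged in selection buffer. A second image followed after 15 min with 500 uM ATP at 22 °C, and five such buffer/ATP cycles were done, each separated by NaOH stripping and re-annealing. The fluorescence ratio, averaged per switch-domain sequence, is summed target-cycle over summed buffer-cycle Cy3 intensity per cluster, with clusters outside 100-1000 RFU excluded.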
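Also: ATP exposure 15 min at 22 °C before imaging.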

Sequence	switch fluorescence ratio
TGGTCGCTAA	1.01
CGGATTGGAG	1.03
CCGTTAGCT	1.65
CTGGCGTCTT	1.04
TAGATAGGAA	1.01
AGATACTACG	1.06
GGGGCAGCGA	1.07
TGGCTCCCAG	1.04
GCGGCAGACA	0.931
CCTTTGGTGT	1.16
CGCCGGGCTG	0.996
GGTATCACTG	1.02
CCTACGATGT	2.38
ACCAGTGCGG	1.02
TAGACATGTC	0.991
ACACGGGGTC	1.02
CACATGCCGT	0.936
ACCTGAGTAG	1.02
GGGGGCCAGT	1.03
TATATCACGT	1.05
AAGGGCAATT	1.02
GACGAGTATG	1.05
AAGAAAGCGA	0.897
AGATGAGGA	0.987
CATAGTTCTT	1.04

Sequence	switch fluorescence ratio
GATAGAGGGC	0.953
AATAGGGTCA	1.02
CCGATGAGAT	2.8
ATGTGAAGGC	1.03
ACTGTATTGC	1.2
GGGCCA	0.945
GCAGTGCACA	1.02
AAAGAAGACC	1
TAAGCCATGA	1.03
TACCTGGCGT	0.964
GTTTTAGAG	1.01
TCTTTCAGGC	1.01
CAGTCGAGTA	0.981
GTGTTTACGG	0.991
CGGTAGAGCT	0.972
CTCACCCAGC	4.34
TAGGGACATT	1.03
TATTGGGTTA	0.998
TGTCCTTGGT	0.987
TAGCCTGCC	1.41
AGACCGTACG	1.11
CCCGGACTGA	1.02
GCCGGCTAAA	1.01
TAGGAGAAAG	0.975
CTGTATTGCC	0.924

Sequence	switch fluorescence ratio
TGTTTTGTA	0.949
CTAATAGGGC	0.981
TTAGTGTTT	0.99
GATACAACGT	1.01
TATAGATCTG	1.01
CGAAAGTAAC	1.06
ATACTTGATA	0.979
ACCTAGCGGT	1.03
TAACCGCAGT	1.68
TGCTTTTGCC	0.953
AGTAAGTCTC	0.974
GACGTTCACT	1.18
GGGGGAACTG	0.961
CACGCTAAAC	3.05
GTTAGGAAGG	0.965
TTGTCCCGGG	1.13
CTCGAGCGAA	1.33
CCAAGGGAAC	0.994
GGTTCCTGGT	0.967
TTTAGTTCT	0.985
CATCATTTCG	1.02
ATCCTGTTAC	1.1
TAAAGGATA	0.99
TTGAATGGAT	1.01
GCTGGAAGG	1.02

Sequence	switch fluorescence ratio
CGAGGCTACT	2.89
AGGAAAATTC	1
ACTACTCTCA	1
AGTTGTCCAG	0.972
CTGCGGTGTG	0.998
TCTTCTTGAC	1.03
GTTAAATGAT	0.993
CGAGGACCTT	1.03
TGGAGGAGGC	1.15
CTTTCGGAAG	0.994
GCTATTATGT	1.02
CTAAACGCGA	2.63
AGGTATGCAA	1.09
CTTGCGAAT	0.991
GGCAAAGGT	1.17
GCACACGTCG	0.97
CGTGCGGATT	0.981
CAAAGAAGAT	0.984
GTCGGCGCGA	1.01
TATAGATGGT	0.96
ACGTCGGGAG	0.995
TTCATGTAAT	1.05
AGGACGAGAA	1.02
AGACGAGGGG	1.03
TGACGTGAGG	1.02

Sequence	switch fluorescence ratio
ACTAGTTTAC	1.03
CGGCACAAGC	1.13
CCCGTCTGAC	1.23
CATTTAATTT	0.992
CCATTTAAC	1.02
TTCATGTTTT	1.01
TAACCGGGCC	1.09
GATGATTTTT	0.993
AAGATGACAG	0.992
CTGGAACTGA	1
GCAGCACATT	1.26
CACCGGATCT	1.03
AGTTTCGAGC	1.02
CTGAAACTTT	1.06
TATGGGAGTC	0.974
CAATCGGGTC	0.956
CGAACCGTGA	1.06
ACCTTGTAG	1.02
AACGGAGTAT	1.03
TATCTTTTGA	0.954
GGCGAAGAGA	1.02
CGTCTAAACG	0.965
ATTGCCGGCG	0.96
ATTCTGGGAG	1
AAAGGGAACG	1.12

Sequence	switch fluorescence ratio
GGGCGACCCA	1.05
CAAATTCGGA	1.01
ATTCCTTCGG	1.03
ATTTGGGATT	0.993
CGATAGCCAG	1.02
GGACCTAGCA	1.08
TGGCGTCGTG	0.947
AGGGTTTCAT	1.09
TAAACGAGTT	1
CAGGGGCTAA	1.02
CGCGAATGAC	1.7
GGGGCCTCAT	0.998
ACGCTATATC	3.24
TATAGCATCA	1.01
CCGGGCGCGG	1
TGCTACTGG	0.994
AGAGGGCACA	0.948
TGGTTAGGAG	0.978
CGCTCTCTAA	1.04
GCGGACATAA	1.01
ACCCCGAATT	1.04
CAGCTTAATC	1.06
TGGGTATGAT	1.01
AAGTCTTGCG	1.06
ACTGGAGCGA	1.41

Sequence	switch fluorescence ratio
ACACGCTTGA	1.05
TTTTAGCCGG	1.01
AAACCTAAGG	1.04
CGAGATGTGA	1.01
CTTTCAAGGG	0.968
AGACCAGATC	1
CGAACAATGA	1.18
CAAAGCGCGT	1.05
GGCACTAAGG	1.01
TAGTATAGCG	0.926
TGGGATCAAA	1
TGTGGAGATG	1.01
ACACCCACGC	1.33
CCGTATTAAG	1.03
ATCGTAGATG	1.04
GGTCAATTCC	1.01
GAACGCCGCC	1.65
AGTTGCTATG	1.03
AGCTGGCAAA	0.993
GATCGTCAT	0.976
GGGGCATATA	0.994
GTGCTTTCAT	1.03
TCCATTTTTG	0.944
CGGCAGCCCG	1.03
ACAGGCTGCT	1

Sequence	switch fluorescence ratio
TATGACCGCG	0.996
AAAATCGGAT	0.995
GTACTTACAC	1.15
CCGACTGGAT	1.19
GATACGTGAC	1.4
TCCTGCATTG	1.06
AAGCATCCAC	1.23
AGGTTTGATA	0.998
CACGCGCTCT	0.982
TGATAAAATG	1
CCATAGACGT	0.964
TAAGTATGCA	0.968
GAAGCTACAT	1.04
GCTGCTAACG	1.03
CGGAGAAGCT	1
TGGAGGTTTC	1.02
TTAGCATTGC	1.17
CGACTAATGG	1
CTGGCGCCGT	0.994
ATGAAGTCGG	0.986
ATGGAAGACC	1.04
TCGTCATCGC	1.11
CCTATCGGTC	1.25
GGGGCCTGAT	1
CGAGGTCGGC	1.1
